Single values are uncertain, as repeats are few or missing.
Legend:
CHO-K1 [1] = experiment: micronucleus frequency (% of nucleated events); higher = more micronuclei (genotoxic)
CHO-K1 [2] = experiment: hypodiploid nuclei frequency (% of nucleated events); higher = more hypodiploid events (aneugenic)
Experimental: (§1)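 Flow-cytometric in vitro micronucleus assay (Litron MicroFlow) in CHO-K1 cells in 96-well plates, 19 concentrations (4.5-200 µM, n=1 per concentration). Without S9, cells were exposed for 24 h and sampled at 48 h. With Aroclor 1254-induced rat liver S9, cells were exposed for 3-4 h and sampled at 27-28 h. Read-outs are %MN and %hypodiploid nuclei relative to nucleated events, and relative survival as the nuclei-to-bead ratio versus the 1% DMSO vehicle control (x100).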

CHO-K1 [3] = experiment: relative survival (nuclei to bead ratio vs DMSO control) (% of vehicle control); higher = more surviving cells
Experimental: as §1
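Throughout, for hypodiploid nuclei frequency (% of nucleated events): hypodiploid nuclei gated on a flow cytometer with 488 nm excitation after SYTOX Green staining, cultures at 37 °C, positive controls vinblastine without S9 and cyclophosphamide with S9.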
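Throughout, for micronucleus frequency (% of nucleated events): cells lysed with nuclei stained by SYTOX Green, then micronucleus-gated events counted against nucleated events by flow cytometry with 488 nm excitation.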
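Throughout, for relative survival (nuclei to bead ratio vs DMSO control): Lysed-cell nuclei stained with SYTOX Green and counted against counting beads by flow cytometry at 488 nm excitation, with vinblastine (no S9) and cyclophosphamide (plus S9) as positive controls.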

CC(C)(c1ccc(O)cc1)c1ccc(O)cc1 [Bisphenol A]
Settings | hypodiploid nuclei frequency, CHO-K1 [2] [%] | micronucleus frequency, CHO-K1 [1] [%] | relative survival, CHO-K1 [3]
concentration: 4.5 (µM), S9 metabolic activation: with S9, exposure time: 3-4 hours | 0.26 | 0.74 | 154
concentration: 4.5 (µM), S9 metabolic activation: without S9, exposure time: 24 hours | 0.52 | 1.78 | 137
concentration: 5.63 (µM), S9 metabolic activation: with S9, exposure time: 3-4 hours | 0.26 | 1.08 | 142
concentration: 5.63 (µM), S9 metabolic activation: without S9, exposure time: 24 hours | 0.54 | 2.08 | 127
concentration: 7.04 (µM), S9 metabolic activation: with S9, exposure time: 3-4 hours | 0.28 | 0.98 | 153
concentration: 7.04 (µM), S9 metabolic activation: without S9, exposure time: 24 hours | 0.62 | 1.18 | 141
concentration: 8.8 (µM), S9 metabolic activation: with S9, exposure time: 3-4 hours | 0.16 | 1.08 | 111
concentration: 8.8 (µM), S9 metabolic activation: without S9, exposure time: 24 hours | 0.38 | 1.32 | 143
concentration: 11 (µM), S9 metabolic activation: with S9, exposure time: 3-4 hours | 0.16 | 0.92 | 114
concentration: 11 (µM), S9 metabolic activation: without S9, exposure time: 24 hours | 0.56 | 1.58 | 130
concentration: 13.7 (µM), S9 metabolic activation: with S9, exposure time: 3-4 hours | 0.2 | 1.3 | 128
concentration: 13.7 (µM), S9 metabolic activation: without S9, exposure time: 24 hours | 0.74 | 1.72 | 118
concentration: 17.2 (µM), S9 metabolic activation: with S9, exposure time: 3-4 hours | 0.18 | 1.02 | 121
concentration: 17.2 (µM), S9 metabolic activation: without S9, exposure time: 24 hours | 0.7 | 1.44 | 116
concentration: 21.5 (µM), S9 metabolic activation: with S9, exposure time: 3-4 hours | 0.2 | 1.08 | 121
concentration: 21.5 (µM), S9 metabolic activation: without S9, exposure time: 24 hours | 0.62 | 1.62 | 111
concentration: 26.8 (µM), S9 metabolic activation: with S9, exposure time: 3-4 hours | 0.26 | 1.1 | 181
concentration: 26.8 (µM), S9 metabolic activation: without S9, exposure time: 24 hours | 0.7 | 1.36 | 108
concentration: 33.6 (µM), S9 metabolic activation: with S9, exposure time: 3-4 hours | 0.22 | 2 | 155
concentration: 33.6 (µM), S9 metabolic activation: without S9, exposure time: 24 hours | 0.7 | 1.36 | 113
concentration: 41.9 (µM), S9 metabolic activation: with S9, exposure time: 3-4 hours | 0.18 | 1.22 | 123
concentration: 41.9 (µM), S9 metabolic activation: without S9, exposure time: 24 hours | 0.84 | 2.52 | 97.8
concentration: 52.4 (µM), S9 metabolic activation: with S9, exposure time: 3-4 hours | 0.26 | 0.94 | 119
concentration: 52.4 (µM), S9 metabolic activation: without S9, exposure time: 24 hours | 0.84 | 1.5 | 107
concentration: 65.5 (µM), S9 metabolic activation: with S9, exposure time: 3-4 hours | 0.42 | 1.52 | 101
concentration: 65.5 (µM), S9 metabolic activation: without S9, exposure time: 24 hours | 1.18 | 1.74 | 101
concentration: 81.9 (µM), S9 metabolic activation: with S9, exposure time: 3-4 hours | 0.26 | 2.38 | 80.9
concentration: 81.9 (µM), S9 metabolic activation: without S9, exposure time: 24 hours | 1.72 | 1.86 | 101
concentration: 102 (µM), S9 metabolic activation: with S9, exposure time: 3-4 hours | 0.34 | 1.6 | 112
concentration: 102 (µM), S9 metabolic activation: without S9, exposure time: 24 hours | 1.78 | 3.62 | 84.6
concentration: 128 (µM), S9 metabolic activation: with S9, exposure time: 3-4 hours | 0.32 | 1.64 | 89.7
concentration: 128 (µM), S9 metabolic activation: without S9, exposure time: 24 hours | 2.58 | 4.52 | 80.3
concentration: 160 (µM), S9 metabolic activation: with S9, exposure time: 3-4 hours | 0.29 | 1.37 | 83.2
concentration: 160 (µM), S9 metabolic activation: without S9, exposure time: 24 hours | 5.66 | 9.02 | 55.1
concentration: 200 (µM), S9 metabolic activation: with S9, exposure time: 3-4 hours | 0.21 | 1.45 | 74.6
concentration: 200 (µM), S9 metabolic activation: without S9, exposure time: 24 hours | 4.18 | 7.68 | 51.9

From the supplement of paper PMC9151546
